Measured values: PubChem BioAssay AID1508642 (National Center for Advancing Translational Sciences (NCATS), 2021)
The campaign covered roughly 43,000 compounds. About 200 (0.47%) were called active. Not shown: some 12% with an inconclusive outcome. Calls come from the whole dose curve; as a rule, active = well fitted cell-killing curve with a large enough effect; inconclusive = small, poorly fitted or top-dose-only effect, or effect the other way; inactive = flat fitted curve, though single readings scatter. The list shows a part of the results.

Assay: Cell viability qHTS assay in S16 Pmp22-F2sN cells; note: nearly all actives have a fitted effect of over 65% in size
Details: S16 Pmp22-F2sN Schwann cells viability, CellTiter-Glo, 24 h; series mostly up to 57.5 µM; activity change, negative = cytotoxicity: at the top concentration
Procedure, shortened: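 Viability was measured by CellTiter-Glo luminescence (15 min, room temperature). This followed 24 h at 37 °C of compound exposure (23 nL pin transfer) in S16 Pmp22-F2sN Schwann cells, 500-1,000 per well.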
% is set by controls: 0 for no effect and ±100 for the full control effect.

| Compound | activity change, negative = cytotoxicity |
| --- | --- |
| CCc1nc2ccc(C(=O)N3CCN(c4ccccc4)CC3)cc2nc1CC | inactive: -15.9% |
| Cc1ccc(CNC(=O)c2cc3c(s2)-c2ccccc2SC3)cc1 | inactive: -18% |
| CCOC(=O)c1cc(-c2ccccc2)n(CC(=O)NC(C)c2ccccc2)c1C (stereo unspecified) | inactive: -0.759% |
| CCOC(=O)c1ccc(NC(=O)Nc2c[nH]c(=O)[nH]c2=O)cc1 | inactive: 3.07% |
| CC(C)CN(CCCNC(=O)Cn1ncc2c3ccccc3n(C)c2c1=O)CC(C)C | inactive: 3.74% |
| CCc1ccc(OC(C)C(=O)N2CCC(c3nc4ccccc4s3)CC2)cc1 (stereo unspecified) | inactive: -24.4% |
| Cc1cc(C)cc(NC(=O)CCS(=O)(=O)c2cc3c4c(c2)CCN4C(=O)CC3)c1 | inactive: -3.06% |
| CN(c1ncnc2onc(-c3cccc(Cl)c3)c12)C1CCCCC1 | inactive: -14% |
| CCc1ccc(-n2nc3cc(C)c(NC(=O)c4cccc5ccccc45)cc3n2)cc1 | inactive: 2.33% |
| COc1ccc(N2CC(NC(=O)COc3ccccc3)CC2=O)cc1OC (stereo unspecified) | inactive: 2.61% |
| Cn1c(=O)c2c(SCC(=O)NCc3ccco3)nc(-c3ccccc3)nc2n(C)c1=O | inactive: -14.3% |
| CC1CCn2c(nc3cc(C(=O)NCCc4ccc(Cl)cc4)ccc32)C1 (stereo unspecified) | inactive: 0.717% |
| Cc1ccc(-n2nc(CO)c(C(=O)NCc3ccccn3)n2)cc1C | inactive: 0.302% |
| Nc1nc(Nc2ccccc2F)sc1C(=O)c1ccc(Cl)cc1 | inactive: 1.45% |
| CCOC(=O)c1noc2ncn(CC(=O)Nc3ccc(C)c(F)c3)c(=O)c12 | inactive: 3.56% |
| Cc1cccc(NC(=O)CCS(=O)(=O)c2ccc3c(c2)n(C)c(=O)c(=O)n3C)c1C | inactive: 3.81% |
| Cc1c(C(=O)N(Cc2ccccc2F)C2CCS(=O)(=O)C2)oc2ccc(F)cc12 (stereo unspecified) | inactive: -6.16% |
| Cc1ccc(-n2c(=O)c3c(C)c(C(=O)N(C)C)sc3n(CC(=O)C(C)(C)C)c2=O)cc1C | inactive: -2.78% |
| O=c1cc(-c2ccccc2)n2c(SCc3ccccc3)nnc2[nH]1 | inactive: 13.4% |
| Cc1cccc(Cn2c(CNS(=O)(=O)c3ccc4c(c3)CCCC4)nc3cccnc32)c1 | inactive: -11.7% |
| COc1ccc(Cc2nc3ccccc3[nH]c2=O)cc1 | inactive: 3.68% |

| Compound | activity change, negative = cytotoxicity |
| --- | --- |
| C=Cc1ccc(Cn2c(C)c(CNCc3cccc(Br)c3)c(C(=O)O)c2C)cc1 | inactive: 5.34% |
| COc1ccc(F)cc1S(=O)(=O)NCCc1csc2nc(-c3cccc(C)c3)nn12 | inactive: 0.364% |
| O=C(c1ccccc1Cl)N1c2ncnn2C2(CCCCC2)[C@@H]2CCCC[C@@H]21 | inactive: -12.9% |
| COC(=O)c1ccc(OCC2c3cc(OC)c(OC)cc3CCN2C(=O)COc2ccc(Cl)cc2)cc1 (stereo unspecified) | inactive: 5.79% |
| Cc1c(Cl)cccc1NC(=O)Cn1c(CCC(=O)O)ccc1-c1cccs1 | inactive: 9.18% |
| CCOC(=O)c1c(NC(C)=O)c2c3c(sc2n1Cc1nc(-c2cccc(Cl)c2)oc1C)CCCC3 | inactive: 9.9% |
| Cc1ccc2oc3c(c(=O)c2c1)C(c1ccc(F)cc1)N(Cc1ccc2c(c1)OCO2)C3=O (stereo unspecified) | inactive: 5.79% |
| CC(=O)c1cccc(NC(=O)c2sc(-n3nc(C)c(Cc4ccc5c(c4)OCO5)c3C)nc2C)c1 | inactive: -15.1% |
| COc1ccccc1CCNC(=O)C(=O)NCC(c1ccc2c(c1)OCO2)N1CCOCC1 (stereo unspecified) | inactive: -12.8% |
| CCOc1ccc(-c2cccc(NS(=O)(=O)c3c(C)cc(C)cc3C)c2)nn1 | inactive: -4.46% |
| CCN(C(=O)C1CCN(S(=O)(=O)c2ccc3c(c2)CCCN3C(C)=O)CC1)c1cccc(C)c1 | inactive: -9.65% |
| COc1cccc(CNC(=O)C(=O)Nc2c3c(nn2-c2ccccc2)CSC3)c1 | inactive: -9.04% |
| COC(=O)c1ccccc1NC(=O)CSc1nc2ccsc2c(=O)n1CCC(C)C | inactive: -3.82% |
| CCOc1cc(C(=O)NCCc2csc3nc(-c4ccc(C)cc4)nn23)cc(OCC)c1OCC | inactive: 1.63% |
| COc1ccc(OC)c(-c2nnc3n(Cc4ccc(C)cc4)c(=O)c4ccccc4n23)c1 | inactive: -3% |
| CC(C)(C)OC(=O)N1CCC(c2c(C(=O)N3CCCCC3)cnn2-c2ccc(Cl)cc2)CC1 | inactive: 7.2% |
| CCCOc1cccc(C(=O)N(Cc2ccc(C)o2)C2CCS(=O)(=O)C2)c1 (stereo unspecified) | inactive: -0.193% |
| CCCCN(CC)CCNC(=O)Cn1cc2c(n1)-c1c(oc(C(=O)N3CCCC3)c1C)CC2 | inactive: 7.62% |
| CN(C(=O)CSc1cn(CC(=O)N2CCOCC2)c2ccccc12)c1ccccc1 | inactive: 4.66% |
| CC(=O)N1CCCc2cc(S(=O)(=O)N3CCC(C(=O)NCc4cccc(C)c4)CC3)ccc21 | inactive: -0.473% |
| COc1cccc(Cn2c(=O)n(Cc3ccco3)c(=O)c3oc4ccccc4c32)c1 | inactive: -4.09% |

| Compound | activity change, negative = cytotoxicity |
| --- | --- |
| COC(=O)c1ccccc1NC(=O)c1c(NC(=O)c2ccco2)sc2c1CCC(C(C)(C)C)C2 (stereo unspecified) | inactive: -7.62% |
| COCCNc1sc(S(=O)(=O)c2ccc(C)cc2)nc1S(=O)(=O)c1ccc(C)cc1 | inactive: 8.55% |
| CC(=O)Nc1ccc(NC(=O)CSc2nccn2C)cc1 | inactive: 15.4% |
| CCCN(C(=O)c1noc2c1COc1ccc(C)cc1-2)c1ccc(Cl)c(Cl)c1 | inactive: 27.7% |
| CCOC(=O)c1cc2c(=O)n3ccccc3nc2n(CC(C)C)c1=NC(=O)c1c(-c2c(F)cccc2Cl)noc1C | inactive: -19% |
| CCc1nc(-c2cc(S(=O)(=O)N3CCN(c4ccccc4OC)CC3)ccc2OC)no1 | inactive: -1.38% |
| CCOC(=O)Cn1c(=O)c2c(nc3n2CCN3c2ccc(CC)cc2)n(C)c1=O | inactive: -3.23% |
| COc1cc(Cl)c(C)cc1Nc1ncnc2c1nc1n2CCCC1 | inactive: 18.7% |
| Cc1ccc(NC(=O)CC(C)S(=O)(=O)c2ccc3c(c2)NC(=O)CO3)cc1Cl (stereo unspecified) | inactive: 10.6% |
| Cc1nc2nc(SCC(=O)NCc3ccccc3Cl)nn2c(C)c1Cc1ccccc1 | inactive: -19.8% |
| CCOC(=O)c1cc(-c2ccccc2)n(-c2cccc(C(=O)Nc3ccc(OCC)cc3)c2)c1C | inactive: 9.69% |
| Cc1ccc(Nc2nn3c(=O)c4cc5c(cc4nc3s2)OCO5)cc1Cl | inactive: 4.87% |
| COc1ccc(Cl)cc1NC(=O)CN1C(=O)COc2ccc(S(=O)(=O)NC3CCCC3)cc21 | inactive: 7.72% |
| COCCCNC(=O)CSc1nc2cc(OC)c(OC)cc2c2nc(-c3ccccc3)nn12 | inactive: -1.88% |
| CS(=O)(=O)CCC(C(=O)Nc1cccc(C(F)(F)F)c1)N1Cc2ccccc2C1=O (stereo unspecified) | inactive: -10.4% |
| Cc1ccc(OCc2nc3ccccc3n2CCOc2ccc(Cl)cc2)cc1 | inactive: -11.3% |
| CC1CCCN(C(=O)c2cc3c(Cl)nc4ccccc4c3s2)C1 (stereo unspecified) | inactive: 0.339% |
| O=C(c1ccco1)c1cn(CCOc2ccc(F)cc2)c2ccccc12 | inactive: 1.54% |
| CCc1ccc(NC(=O)CCS(=O)(=O)c2ccc3c(c2)n(C)c(=O)c(=O)n3C)cc1 | inactive: 10.6% |
